What all share (assay): Primary Screen for Target Class Profiling of Small Molecule Inhibitors of Methyltransferases
For assay [1], the target named is Glycine N-methyltransferase (Homo sapiens) (UniProt Q14749). The conditions noted are these: purified enzyme, MTase-Glo SAH luminescence; measured here: GNMT inhibition; at 40 µM; stronger effect = lower value. The method in brief:
(§1)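 Each enzyme was assayed with SAM and its substrate. SAH formation detected by MTase-Glo luminescence; single-point 40 uM screen[…].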

In assay [2] the target is Guanidinoacetate N-methyltransferase (Homo sapiens) (UniProt Q14353). The conditions noted are these: purified enzyme, MTase-Glo SAH luminescence; measured here: GAMT inhibition; at 40 µM; stronger effect = lower value. A digest of the protocol: as §1
For assay [3], the target named is Histamine N-methyltransferase (Homo sapiens) (UniProt P50135). To be noted: purified enzyme, MTase-Glo SAH luminescence; measured here: HNMT inhibition; at 40 µM; stronger effect = lower value. The method in brief:
as §1

The target of assay [4] is Nicotinamide N-methyltransferase (Homo sapiens) (UniProt P40261). To be noted: purified enzyme, MTase-Glo SAH luminescence; measured here: NNMT inhibition; at 40 µM; stronger effect = lower value. A digest of the protocol:
as §1

Assay [5] addresses Phenylethanolamine N-methyltransferase (Homo sapiens) (UniProt P11086). The conditions noted are these: purified enzyme, MTase-Glo SAH luminescence; measured here: PNMT inhibition; at 40 µM; stronger effect = lower value. A digest of the protocol:
as §1

This is one part of the list. The main result of the screen is listed elsewhere. These columns were measured beside it and carry no call.
% is set by controls: 0 for no effect and ±100 for the full control effect.

For `COc1ccc2c(c1)c(NC(C)=O)c1n2CC(C)(C(=O)NC2CCCCCC2)N(CCC(C)C)C1=O` (stereo not given), the activity change, negative = inhibition was 3.44% in assay [1]; 4.72% in assay [2]; 5.54% in assay [3]; 6.25% in assay [4]; -0.165% in assay [5].

For the compound `COc1ccc(CN2CCc3ncc(C(=O)NCc4ccc5c(c4)OCO5)n3CC2)cn1`, the activity change, negative = inhibition in assay [1] is -10.1%; in assay [2], -12%; in assay [3], -6.23%; in assay [4], -21.2%; in assay [5] it was -13.8%.

`CSc1ccc(CCNC(=O)CCn2ccc3cc(S(=O)(=O)N4CCCC4)ccc32)cc1`: the activity change, negative = inhibition in assay [1] is 2.72%; in assay [2] it was 0%; in assay [3] it was 4.61%; in assay [4] it was -1.06%; in assay [5], 2.82%.

On to `CCCN1C(=O)c2c(C(=O)NCc3ccc(OC)cc3)ncn2CC1(C)C(=O)NCCC(C)C` (stereo not given), for which the activity change, negative = inhibition in assay [1] was -2.03%; in assay [2] it was 1.99%; in assay [3], -0.517%; in assay [4], -0.361%; in assay [5], 2.27%.

For `O=S(=O)(c1cccnc1)N1CCC(N(Cc2cccnc2)C2CCOCC2)CC1`, the activity change, negative = inhibition in assay [1] was -0.022%; in assay [2] it was 0.505%; in assay [3], 2.26%; in assay [4], -1.85%; in assay [5] it was -0.981%.

In the case of `COc1cc(C(N)=O)nc(-c2ccccn2)c1O`, the activity change, negative = inhibition in assay [1] is -13.9%; in assay [2], -14.4%; in assay [3], -2.86%; in assay [4], -26.6%; in assay [5], -6.5%.

For the compound `CCCNC(=O)N(C1CCOCC1)C1CCN(C(=O)CCC(=O)c2ccc(F)cc2)CC1`, the activity change, negative = inhibition in assay [1] is 23.6%; in assay [2], -4.71%; in assay [3], -1.62%; in assay [4] it was -3.47%; in assay [5] it was -7.68%.

Take `COc1ccc(CNC(=O)c2cc3n(n2)CC(C)(C(=O)NCCC(C)C)N(C)C3=O)c(OC)c1` (stereo not given): the activity change, negative = inhibition was 2.37% in assay [1]; 0% in assay [2]; 1.53% in assay [3]; -3.97% in assay [4]; 1.85% in assay [5].

`O=C(CCC[C@@H]1[C@H]2CCCN3CCC[C@@H](CN1C(=O)c1ccccc1F)[C@@H]23)N1CCOCC1`: the activity change, negative = inhibition is -1.02% in assay [1]; -1.97% in assay [2]; -1.04% in assay [3]; -7.75% in assay [4]; 3.58% in assay [5].

In the case of `C(#Cc1cccc(CN2CCOCC2)c1)CCN1CCCCC1`, the activity change, negative = inhibition in assay [1] is 6.1%; in assay [2] it was 4.66%; in assay [3], -4.76%; in assay [4], -10.2%; in assay [5], 1.6%.

In the case of `CN1[C@@H]2CC[C@H]1CC(NC(=O)n1c(=O)[nH]c3ccccc31)C2` (stereo not given in full), the activity change, negative = inhibition was -7.5% in assay [1]; 3.81% in assay [2]; -11.4% in assay [3]; -19.4% in assay [4]; -14% in assay [5].

Consider `CN1C(=O)c2cc(C(=O)NCc3ccc(F)cc3)nn2CC1(C)C(=O)NCc1ccc(F)cc1` (stereo not given), for which the activity change, negative = inhibition came out at 7.09% in assay [1]; 0% in assay [2]; 2.87% in assay [3]; 7.2% in assay [4]; 0.393% in assay [5].

For `Cc1noc(C)c1CCNC(=O)c1cc2n(n1)CC(C)(C(=O)NCc1ccc(F)cc1)N(C)C2=O` (stereo not given), the activity change, negative = inhibition in assay [1] was -0.742%; in assay [2], 2.09%; in assay [3], 1.95%; in assay [4], -4.77%; in assay [5], -4.75%.

With `CC(C)CCn1c(=O)c2ccccc2n2c(SCC(=O)NCc3ccccc3Cl)nnc12`, the activity change, negative = inhibition was 2.87% in assay [1]; 0.493% in assay [2]; 7.08% in assay [3]; -1.99% in assay [4]; 5.87% in assay [5].

As to `CCOC(=O)c1ccc(NC(=O)N2CCn3c(C)ccc3C2CC)cc1` (stereo not given), the activity change, negative = inhibition in assay [1] is -1.55%; in assay [2], 2.21%; in assay [3], 1.93%; in assay [4] it was -4.24%; in assay [5], -1.74%.

Regarding `O=C(NCc1ccc(Cl)cc1)C1CC(=O)N(c2n[nH]c3cccc(F)c23)C1` (stereo not given), the activity change, negative = inhibition in assay [1] is -1.47%; in assay [2], 2.77%; in assay [3] it was 3.96%; in assay [4] it was -3.25%; in assay [5], 12.4%.

Regarding `COCCOC1CCOC2(CCN(C(=O)CCCc3ccccc3)CC2)C1` (stereo not given), the activity change, negative = inhibition is -0.15% in assay [1]; 4.65% in assay [2]; 2.06% in assay [3]; -4.05% in assay [4]; 16.6% in assay [5].

Turning to `COc1ccccc1CN1C(=O)c2ccc(-c3ccco3)n2CC1(C)C(=O)NC1CCCC1` (stereo not given), the activity change, negative = inhibition in assay [1] is -11.1%; in assay [2], -11.5%; in assay [3], -0.446%; in assay [4] it was -11%; in assay [5], -8.86%.

With `CC(C)Cn1c(=O)c2ccccc2n2c(=O)n(CC(=O)c3cccc(Cl)c3)nc12`, the activity change, negative = inhibition in assay [1] was 2.84%; in assay [2], 0.867%; in assay [3] it was 6.61%; in assay [4], -35.2%; in assay [5], 3.3%.

Regarding `O=S(=O)(N[C@H]1CO[C@H]2[C@@H]1OC[C@@H]2n1nnnc1Oc1cccc(N2CCOCC2)c1)c1cccs1`, the activity change, negative = inhibition in assay [1] was -2.28%; in assay [2], -3.64%; in assay [3], -1.82%; in assay [4], -4.61%; in assay [5] it was -0.581%.

Regarding `CC(C)OCCCn1c(=O)c2ccccc2n2c(CCC(=O)N3CCN(c4ccc(F)cc4)CC3)nnc12`, the activity change, negative = inhibition in assay [1] is -10.6%; in assay [2], 0%; in assay [3] it was 1.89%; in assay [4] it was -2.5%; in assay [5], 2.68%.

As to `CC1(C(=O)NC2CCCCCC2)Cc2ccccc2C(=O)N1Cc1cccnc1` (stereo not given), the activity change, negative = inhibition in assay [1] came to 0.057%; in assay [2] it was 0%; in assay [3], 12.1%; in assay [4], 13.3%; in assay [5], 4.32%.

As for `CSc1cccc(N2C(=O)c3cc(-c4cccs4)nn3CC2(C)C(=O)NC2CCCCCC2)c1` (stereo not given), the activity change, negative = inhibition is 3.08% in assay [1]; 0% in assay [2]; 6.74% in assay [3]; 3.05% in assay [4]; 0.843% in assay [5].

For the compound `O=C(Cc1ccsc1)N1CCC2(CC1)N=C(c1ccccc1)NO2`, the activity change, negative = inhibition in assay [1] was -4.67%; in assay [2], -3.35%; in assay [3] it was -3.51%; in assay [4], -7.4%; in assay [5], -1.84%.

In the case of `CC(C)OCCCn1c(=O)c2ccccc2n2c(CCC(=O)N3CCN(c4cccc(Cl)c4)CC3)nnc12`, the activity change, negative = inhibition in assay [1] is -16%; in assay [2], 0.56%; in assay [3] it was -2.37%; in assay [4] it was -33.2%; in assay [5], -6.34%.

For `COc1cccc(CN2C(=O)c3ccc(-c4ccco4)n3CC2(C)C(=O)NC2CCC(C)CC2)c1` (stereo not given), the activity change, negative = inhibition is -0.916% in assay [1]; 4.97% in assay [2]; -1.28% in assay [3]; -6.53% in assay [4]; -0.236% in assay [5].

As to `CCC(C)NC(=O)c1ccc2c(=O)n(CC(C)C)c3nn(Cc4cccc(F)c4)c(=O)n3c2c1` (stereo not given), the activity change, negative = inhibition in assay [1] was -4.87%; in assay [2] it was 4.28%; in assay [3], -0.015%; in assay [4] it was -4.47%; in assay [5], 1.38%.

Turning to `COc1cc(N2CCN(C(C)=O)CC2)ccc1Nc1ncc(Cl)c(Nc2ccc(N3CCN(C(C)=O)CC3)cc2OC)n1`, the activity change, negative = inhibition in assay [1] is -34.1%; in assay [2], 0.608%; in assay [3] it was -29%; in assay [4], -35.5%; in assay [5] it was -21.1%.

As to `CC1CCC2C(C)(C)[C@@H](O)CC[C@]2(C)C12Cc1c(O)cc3c(c1O2)CN(C(CCC(=O)O)C(=O)O)C3=O` (stereo not given in full), the activity change, negative = inhibition in assay [1] is 2.5%; in assay [2] it was 3.71%; in assay [3] it was 6.68%; in assay [4], -6.64%; in assay [5], -5.22%.

As for `COc1ccc(-c2nnn3c2nc(N2CCC(C)CC2)c2ccccc23)cc1`, the activity change, negative = inhibition in assay [1] was -4.09%; in assay [2], 3.3%; in assay [3], -2.02%; in assay [4] it was -6.76%; in assay [5], -5.19%.

`COC1C(OC(=O)/C=C/C=C/C=C/C=C/C(=O)O)CCC2(CO2)C1C1(C)OC1CC=C(C)C` (stereo not given): the activity change, negative = inhibition in assay [1] is 1.95%; in assay [2] it was 5.58%; in assay [3], 7.01%; in assay [4], -6.88%; in assay [5], -4.19%.

As for `COc1ccc2cc3n(c2c1)CC(C)(C(=O)NC1CCCCC1)N(Cc1ccccc1Cl)C3=O` (stereo not given), the activity change, negative = inhibition in assay [1] was determined as 0.692%; in assay [2], 0%; in assay [3] it was 3.01%; in assay [4], 3.27%; in assay [5] it was 2.12%.

On to `CC[C@@H](Nc1c(Nc2cccc(C(=O)N(C)C)c2O)c(=O)c1=O)c1ccc(C)o1`, for which the activity change, negative = inhibition is -1.32% in assay [1]; -5.39% in assay [2]; 6.59% in assay [3]; -18.1% in assay [4]; -1.87% in assay [5].

`CC(C)Cn1c(=O)c2ccccc2n2c(SCc3ccc(Cl)cc3)nnc12`: the activity change, negative = inhibition is -2% in assay [1]; 1.46% in assay [2]; 3.21% in assay [3]; -3.72% in assay [4]; 4.38% in assay [5].

Regarding `COC(=O)[C@@H]1Cc2ncn(Cc3ccc(Cl)cc3)c2CN1S(=O)(=O)c1cccs1`, the activity change, negative = inhibition in assay [1] was -47.9%; in assay [2], -5.73%; in assay [3], -4.79%; in assay [4] it was -19.1%; in assay [5] it was -5.56%.

With `NCc1ccc(Nc2ncc(F)c(Nc3ccccc3)n2)cc1`, the activity change, negative = inhibition is -7.8% in assay [1]; 0.892% in assay [2]; -1.14% in assay [3]; -24.2% in assay [4]; -5.52% in assay [5].

For `Cc1ccc(CCNC(=O)c2ncn3c2C(=O)N(C2CC2)C(C)(C(=O)NCc2ccc(F)cc2)C3)cc1` (stereo not given), the activity change, negative = inhibition in assay [1] was -9.37%; in assay [2], -1.75%; in assay [3] it was -8.22%; in assay [4] it was -6.56%; in assay [5], -6.6%.

Turning to `C[S+](=O)([O-])NCCNC(=O)c1cccc(-c2ccsc2)c1`, the activity change, negative = inhibition is -3.71% in assay [1]; -0.886% in assay [2]; -0.871% in assay [3]; -2.43% in assay [4]; 2.23% in assay [5].

Source of the values: PubChem BioAssay AID1745853 (National Center for Advancing Translational Sciences (NCATS), 2022).
